# Laboratory results from article PMC3894216 (PLoS Pathogens, 2014).
# No constants are given. Whether binding was seen depends on the method and setting. Some results given as binding are weak or reduced against the parent protein; the word gives no strength.
# T1: recombinant Lu/BCAM stably expressed on K562 cells (K562-Lu/BCAM) (UniProt P50895)
# T1 sequence: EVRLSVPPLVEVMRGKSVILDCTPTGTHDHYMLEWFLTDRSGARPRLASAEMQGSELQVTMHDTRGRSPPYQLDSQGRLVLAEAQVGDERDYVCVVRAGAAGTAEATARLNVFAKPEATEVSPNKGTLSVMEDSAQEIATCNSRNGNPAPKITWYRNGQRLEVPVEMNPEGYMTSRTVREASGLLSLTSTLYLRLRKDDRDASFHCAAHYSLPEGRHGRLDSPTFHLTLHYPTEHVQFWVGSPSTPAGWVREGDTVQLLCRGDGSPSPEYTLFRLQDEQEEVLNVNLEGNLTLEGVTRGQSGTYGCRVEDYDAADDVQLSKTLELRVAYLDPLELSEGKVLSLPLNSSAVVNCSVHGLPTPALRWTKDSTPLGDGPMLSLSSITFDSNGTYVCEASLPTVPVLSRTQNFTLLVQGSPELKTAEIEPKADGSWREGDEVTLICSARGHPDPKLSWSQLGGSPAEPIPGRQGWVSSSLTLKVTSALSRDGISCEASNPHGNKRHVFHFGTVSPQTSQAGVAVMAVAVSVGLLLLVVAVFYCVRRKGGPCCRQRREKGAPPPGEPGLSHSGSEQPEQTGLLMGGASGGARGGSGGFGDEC
# T2: recombinant BCAM containing a C-terminal human IgG domain (UniProt P50895)
# T2 sequence (chain, fully glycosylated): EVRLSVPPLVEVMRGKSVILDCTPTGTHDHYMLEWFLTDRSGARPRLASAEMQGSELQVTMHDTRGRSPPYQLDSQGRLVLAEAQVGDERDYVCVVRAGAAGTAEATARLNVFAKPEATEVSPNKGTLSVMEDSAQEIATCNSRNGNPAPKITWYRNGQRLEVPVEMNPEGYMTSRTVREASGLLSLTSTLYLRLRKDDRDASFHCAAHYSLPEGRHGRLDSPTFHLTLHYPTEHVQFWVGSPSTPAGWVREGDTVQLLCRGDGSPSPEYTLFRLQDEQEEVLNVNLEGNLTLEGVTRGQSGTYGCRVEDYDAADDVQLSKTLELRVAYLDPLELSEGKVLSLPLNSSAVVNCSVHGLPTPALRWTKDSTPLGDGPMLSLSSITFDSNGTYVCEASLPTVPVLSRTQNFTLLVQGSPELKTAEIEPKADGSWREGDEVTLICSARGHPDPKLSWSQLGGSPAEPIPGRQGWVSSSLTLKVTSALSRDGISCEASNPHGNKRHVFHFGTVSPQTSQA
# B1: recombinant BCAM containing a C-terminal human IgG domain (Fc fusion, UniProt P50895)
# chain: T2 sequence (chain, fully glycosylated)
# modifications: fully glycosylated
# B2: PNGaseF-treated deglycosylated recombinant BCAM (Fc fusion, UniProt P50895)
# chain: T2 sequence (chain, fully glycosylated)
# modifications: N-glycans removed with PNGaseF (runs at 67 kDa instead of 84 kDa)
# Columns and labels:
# [1] = target: T1, recombinant Lu/BCAM stably expressed on K562 cells (K562-Lu/BCAM); test: flow cytometry on cells; only the binder purified
# [2] = target: T2, recombinant BCAM containing a C-terminal human IgG domain; test: SPR; Biacore, anti-human IgG antibody coupled to CM5 chip, rBCAM with C-terminal human IgG domain (0.2 µM) captured on lane 2, GST-CNF proteins (1 µM) as analyte over both lanes, RU corrected for lane 1; both purified
# [3] = target: GST-CNF1 (full-length toxin) (Escherichia coli) (UniProt Q47106); test: far-Western, overlay or dot blot; GST-CNFs, GST-CNF fragments and GST (5 µl of 3 µM) spotted on nitrocellulose, rBCAM overlaid (6 µM, 1 h, room temperature by the legend; 5 nM in TBST, 30 min, 4°C by the methods), detected with anti-Lu/BCAM antibody; both purified
# [4] = target: GST-CNF1 N-terminal fragment (aa 1-342) (Escherichia coli) (UniProt Q47106); test: as above
# [5] = target: GST-CNF1-(426-1014) (Escherichia coli) (UniProt Q47106); test: as above
# [6] = target: GST-CNF1-(709-1014) (Escherichia coli) (UniProt Q47106); test: as above
# [7] = target: GST-CNF1-(720-1014) (Escherichia coli) (UniProt Q47106); test: as above
molecule,measurement,setting,value
DyLight488-labeled GST-CNF1 (from UniProt Q47106 1-1014),binding,[1],binds
GST-CNF1 N-terminal fragment (aa 1-342) (from UniProt Q47106 1-342) (domain or fragment),binding,[2],no binding (tested: 1 µM)
GST-CNF1-(426-1014) (from UniProt Q47106 426-1014) (domain or fragment),binding,[2],binds
B1,binding,[3],binds
same,binding,[4],no binding (tested: 6 µM rBCAM (legend); 5 nM (methods))
same,binding,[5],binds
same,binding,[6],binds
same,binding,[7],binds
B2,binding,[3],binds
